The record followed here is publication PMC12136788.

This is one part of the list.

The labels stand for the following.
B1: chr1:167421552:167421653:+|3pUTR|ENSG00000143190|unk|total|mutant (ssRNA)
RNA: GGGAGUUCUACAGUCCGACGAUCUUUUCUUCUAACCUUAUUCAUUAAGCCGUUCCUUGUUUUGGCCCUUCUACUCUUGGCCUCCGCUAAAAGCAGUAAAUGUGAGUGAAUUUUAUGUUGAUUAUGUCACCUGGAUCUCCUUUCCAACAGAGGAUUGAGCAUCA
B2: chr9:74692981:74693082:+|3pUTR|ENSG00000198963|unk|FALSE|unique (ssRNA)
RNA: GGGAGUUCUACAGUCCGACGAUCUUUUAUAUUACUUUAGAAUGUAAUAGGUUUUUGUCCUUAUUUUAUGUCCUGUAAAUUAUUAGUUCAAUACUGUUAGCAUUCCCGGAUAAUGCACACAUGAUUUCUGAAUGUUUUCUGUAACAACAGAGGAUUGAGCAUCA
B3: chr5:90513983:90514084:+|3pUTR|ENSG00000113356|unk|total|mutant (ssRNA)
RNA: GGGAGUUCUACAGUCCGACGAUCAAAUACACUGAAGAUAAAGGUUAUUUCUUUUUUCCGCUUUGAAUUUGUCAUGACCAUUUCCGUCUUGCAGACCGCAGGGCAGCCCCUUGGGGCAAGGAUUUACUCUGGGAGGUACCGUUACAACAGAGGAUUGAGCAUCA
B4: chr2:73958838:73958951:+|3pUTR|ENSG00000114956|unk|total|mutant (ssRNA)
RNA: GGGAGUUCUACAGUCCGACGAUCCCAGCCCCUCUCAUCCCUGGAGCACUCUGCCGCUCAAGAGCUGGUUUGUUAAUUAUUGUCCGACUUUGCCAUUGUUUUCUUUUGUACCUGAAGCAUUUUGAAAAUAAAGUUUACUUAAGUCAACAGAGGAUUGAGCAUCA
B5: chr22:21448335:21448436:+|3pUTR|ENSG00000169635|unk|total|mutant (ssRNA)
RNA: GGGAGUUCUACAGUCCGACGAUCGCAGUCCUGGCCCCCGGCCACUGUCUCGGGGCCCACCUCUCGCCCCUCAUCUUGGUAAUCCGCCAGCCUCAGAUACUUCUGUGGGCCCUGAAGUGGGCUCUCAAGGUCAGACCAAGGUUGCAACAGAGGAUUGAGCAUCA
B6: chr12:25205306:25205412:-|3pUTR|ENSG00000133703|unk|total|mutant (ssRNA)
RNA: GGGAGUUCUACAGUCCGACGAUCGUCAUAUCAAACAUUAAAAAUGACCACUCUUUUAAUUGAAAUUAACUUUUAAAUGUUUACCGGAGUAUGUGCUGUGAAGUGAUCUAAAAUUUGUAAUAUUUUUGUCAUGAACUGUACUACCAACAGAGGAUUGAGCAUCA
B7: chr8:65707876:65707977:+|CDS|ENSG00000066855|unk|total|mutant (ssRNA)
RNA: GGGAGUUCUACAGUCCGACGAUCCCUGCUGCCCUCACCGCAGAGGCUCUGAAAAAGAAAUUUGCUUAUCGGUAUCGAAGUGACCGCCAAGAUGAAGUUGAAAAAGGAAUUCCAAAGUCUGAAUCAGAGGCCACCUCAGAGAGACAACAGAGGAUUGAGCAUCA
B8: chr13:106491261:106491362:-|3pUTR|ENSG00000125266|msi1|total|mutant (ssRNA)
RNA: GGGAGUUCUACAGUCCGACGAUCACAAUAAUGAGAGCAAAUGCAAAAAUAACCAAGUCCUCCGAAGGCAUCUCACGGAACCGCCGACCCGGAAGUACGAGCCCCACAGAGCAGGAAGCCGAUGUGACUGCAUCAUAUAUUUAACAACAGAGGAUUGAGCAUCA
B9: chr2:224001733:224001845:-|CDS|ENSG00000135919|unk|FALSE|bound_elsewhere (ssRNA)
RNA: GGGAGUUCUACAGUCCGACGAUCGGCCUCUGUGACGCUGCCUUCCAUCUGCUCCCACUUCAAUCCUCUGUCUCUCGAGGAACUAGGCUCCAACACGGGGAUCCAGGUUUUCAAUCAGAUUGUGAAGUCGAGGCCUCAUGACAACAACAGAGGAUUGAGCAUCA
B10: chr16:66769962:66770309:-|CDS|ENSG00000249961|control|control|control (ssRNA)
RNA: GGGAGUUCUACAGUCCGACGAUCCUCCAUGCAGAUCGGAUUGGUCGAGGUAGCAAAGCAGAAGAUGAGGAUAAAAGCCAUUCUAGACAGUUACAGAGUUAUAAGUCCCAUGGAGUCAUGUCUAAAGCAUGUACAAAUGAUGACCAACAGAGGAUUGAGCAUCA
B11: ENSG00000070961:be:win_1801|CDS|ENSG00000070961|bound_else_gene|NA|bound_elsewhere_windowed (ssRNA)
RNA: GGGAGUUCUACAGUCCGACGAUCAAGGGUGCAUCUGAGAUAAUUCUGAAAAAGUGUUUCAAAAUCUUGAGUGCUAAUGGUGAGGCAAAAGUAUUCAGACCAAGGGACCGUGAUGAUAUUGUAAAAACUGUGAUUGAACCGAUGCAACAGAGGAUUGAGCAUCA
B12: chr15:67202635:67202736:-|3pUTR|ENSG00000103591|msi1|total|mutant (ssRNA)
RNA: GGGAGUUCUACAGUCCGACGAUCUGCCAAAAUUGCCCUUAUCAUGUUGGCUGCCUGACUUGUUUACCGGGUCCCCUUAAUUUCCGUUUUCCGCCGGAGGUUAAGGAGAAAUCUUUUUUUUCCUCAGUAUAUUGUAAGAGAGUGCAACAGAGGAUUGAGCAUCA
B13: chr12:64128047:64128160:+|CDS|ENSG00000196935|unk|total|mutant (ssRNA)
RNA: GGGAGUUCUACAGUCCGACGAUCGGCAGCCUGACCAACAUCAGCCGGCACGACUCCCUCAAGAAGAUCGACAGCCCUCCCAUCCGAAGGUCCACGUCAUCAGGGCAAUACACGGGCUUCAAUGACCACAAGCCACUGGACCCACAACAGAGGAUUGAGCAUCA
B14: chr10:116672031:116672132:-|3pUTR|ENSG00000165868|msi1|total|mutant (ssRNA)
RNA: GGGAGUUCUACAGUCCGACGAUCCCUUUCCUGCCUUGCAUUAAUGCUAUCUCCCUGUGUACUGUUUCUCUUAAAUGAGCAGACCGAAAUCUGCAGUGUUGGCAGACCGGUGAUGGAGAGGAUGAUAAUUUUAUCUUCUGGCCACAACAGAGGAUUGAGCAUCA
B15: chr9:34635388:34635489:-|3pUTR|ENSG00000147955|msi1|total|mutant (ssRNA)
RNA: GGGAGUUCUACAGUCCGACGAUCGGGAUAUCCAUGCUUAUGUAUCCAAACACAGAGACCCAUGGGAACAAAUGAGACACAUACCGAUACUGAGACCUGUGUGUACAGCCGGACCAUGCACUCACACCCAUCUGGAGAGGGAGCCAACAGAGGAUUGAGCAUCA
B16: chr17:63766011:63766126:-|CDS|ENSG00000108588|unk|FALSE|unique (ssRNA)
RNA: GGGAGUUCUACAGUCCGACGAUCGGUGUUUGGGAGUGUCUCUGAAGCCAAGUUUGAUGAUUUUGAGGAUGAGGAGGACAUAGUAGAGUAUGAUGAUAAUGACUUCGCUGAAUUUGAGGAUGUCAUGGAAGACUCUGUUACUGACAACAGAGGAUUGAGCAUCA
B17: chr3:10101824:10101929:+|3pUTR|ENSG00000144554|unk|FALSE|unique (ssRNA)
RNA: GGGAGUUCUACAGUCCGACGAUCAAAAUCUCUGAGUCAUGAUUCUGGACUUUGGGAGCUAGUUUUGAAACUCUGAUUUAUUGUAGAACUUAGGCUUGUACCAAUUUUACAAAUAAAUUCUGUUCUAAGUUCUGCCUCAGUUGCCAACAGAGGAUUGAGCAUCA
B18: chr4:48851844:48851957:+|CDS|ENSG00000109180|unk|FALSE|unique (ssRNA)
RNA: GGGAGUUCUACAGUCCGACGAUCAUAUGACUCAAGUGUGAGUGGUCAAUCAUCUUUUGUGACAUCCCCAGCAGCAGACAACAUAGAAAUGCUUCCUCAUUAUGAGCCAAUUCCAUUCAGUUCUUCUAUGAAUGAAUCUGCUCCCAACAGAGGAUUGAGCAUCA
B19: chr19:41259979:41260080:+|3pUTR|ENSG00000167601|msi1|FALSE|unique (ssRNA)
RNA: GGGAGUUCUACAGUCCGACGAUCCCUGUCUUCCUACCUAUCCCACCUCCAUCCCAGACAGGUCCCUCCCCUUCUCUGUGCAGUAGCAUCACCUUGAAAGCAGUAGCAUCACCAUCUGUAAAAGGAAGGGGUUGGAUUGCAAUACAACAGAGGAUUGAGCAUCA
B20: chr1:227780961:227781062:+|3pUTR|ENSG00000143740|unk|total|mutant (ssRNA)
RNA: GGGAGUUCUACAGUCCGACGAUCCCUGGAAGAGGCCGCCCUCGUCUUGUCUCGGCUCCCUUUCAUGGACAGACUGGCCUUCUCCGCUGUACUAUAAAUUUGUGAGUGAAGUCCGAGCCCAGCUCACUCCGCCAGCUCACUUUGCAACAGAGGAUUGAGCAUCA
B21: chr9:125437660:125437767:-|3pUTR|ENSG00000119487|unk|FALSE|unique (ssRNA)
RNA: GGGAGUUCUACAGUCCGACGAUCUGAUGUCCUUACUGUCCCCAGCCAGGGCCGGGGACCGGUGUUUCACUGAGGACCUGCAUUAGAAACAUUUUUUAAAUUGUUGUACAGGAAGAGAUGUGUCUAAAACAGCAUCUUAAAGCUCAACAGAGGAUUGAGCAUCA
B22: chrX:41141081:41141111:+|CDS|ENSG00000124486|msi1_unk|FALSE|overlapping (ssRNA)
RNA: GGGAGUUCUACAGUCCGACGAUCCACUCUUCAUACAGUGAAAAAGUACUUUCUUCCAAUAAUAGAAAUGGUUCCACAGUUUUUAGAAAACUUAACUGAUGAAGAACUGAAAAAAGAAGCAAAGAAUGAAGCCAAAAAUGAUGCCAACAGAGGAUUGAGCAUCA

The target of the experiment is T1, UNK ZnF1-6 (called full-length) (human, UniProt Q9C0B0 30-357).
T1 sequence: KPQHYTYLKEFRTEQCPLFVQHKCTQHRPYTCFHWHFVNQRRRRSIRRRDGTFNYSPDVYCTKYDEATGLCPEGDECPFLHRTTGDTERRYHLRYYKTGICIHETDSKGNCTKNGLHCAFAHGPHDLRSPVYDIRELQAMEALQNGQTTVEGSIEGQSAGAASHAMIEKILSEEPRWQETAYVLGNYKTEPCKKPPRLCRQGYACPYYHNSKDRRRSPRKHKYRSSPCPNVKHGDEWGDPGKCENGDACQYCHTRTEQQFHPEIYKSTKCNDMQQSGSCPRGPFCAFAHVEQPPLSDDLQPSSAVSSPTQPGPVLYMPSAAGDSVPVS
Briefly: nsRBNS (natural sequence RNA bind-n-seq); RBNS binding buffer (assumed for nsRBNS): 25 mM Tris pH 7.5, 150 mM KCl, 3 mM MgCl2, 0.01% Triton X-100, 500 ug/ml BSA, 20 U/ml SUPERase-In, 4 C; UNK is unkempt and MSI1 is Musashi-1; names of the RNAs are library labels; protein concentration not given here; high values mean tight binding.
Consider B1, for which the binding signal is 0.442 enrichment R.

Molecule B2 registered a binding signal of 1.23 enrichment R. For B3 the value was 0.502 enrichment R; for B4, 0.586 enrichment R.

With B5, the binding signal came to 0.697 enrichment R.

The molecule B6 showed a binding signal of 0.619 enrichment R. For B7 the value was 0.497 enrichment R. For B8 the value was 0.792 enrichment R.

As to B9, the binding signal turned out to be 0.698 enrichment R. With B10, the binding signal is 0.819 enrichment R. Then B11, with 0.56 enrichment R. Then B12, with 0.468 enrichment R. In the case of B13, the binding signal was determined as 0.738 enrichment R. Molecule B14 came in with a binding signal of 0.548 enrichment R. Then B15, with 0.886 enrichment R.

B16: the binding signal was determined as 0.665 enrichment R.

Consider B17, for which the binding signal was 0.768 enrichment R. B18 displayed a binding signal of 0.365 enrichment R. With B19, the binding signal was determined as 0.71 enrichment R. B20 yielded a binding signal of 0.647 enrichment R. B21 had a binding signal of 0.967 enrichment R. For B22 the value was 1.13 enrichment R.
